# Article PMC10668032
# The list shows a part of the results. At the low end of the ranking the order means little.
# Target: SIX1-Q177R homeodomain (UniProt Q15475)
# Assay: universal protein binding microarray
# Details: Universal all-10-mer PBM (8x60K, AMADID 030236), 300 nM GST-tagged protein, Alexa Fluor 488 anti-GST; buffer, salt, pH and temperature not stated; high values mean tight binding; most listed sequences are background and not binding sites; double strand, one strand shown
row,Sequence,binding signal [E-score]
1,TACCGCCA,-0.0258
2,ACGATACG,0.0271
3,CGTACCTC,-0.165
4,AGATTCCT,-0.138
5,ATGGAGAG,-0.131
6,GGCTGCCC,-0.236
7,TGAGCAAA,-0.22
8,GCCGCGGA,-0.0545
9,CTGGCCGA,-0.19
10,GTTATGGA,-0.0956
11,CGTGCAAA,0.062
12,ACATGGCT,-0.158
13,CGAAGGAA,-0.0842
14,AAGTTGAG,-0.153
15,CACCTCAG,0.26
16,CCAGGTAA,0.043
17,CGAGAACC,-0.0476
18,CGCCCAGA,-0.137
19,AATTATGG,-0.136
20,GATCAACA,0.206
21,ATCCTCAT,0.0337
22,AACTCGCA,-0.17
23,ATGTCTCG,-0.0871
24,CACTGTAA,0.137
25,CATAGTTC,-0.258

row,Sequence,binding signal [E-score]
1,AGACACAA,0.105
2,AGTCGGCC,-0.136
3,GCTGAGGA,-0.158
4,GGCCAGTA,-0.255
5,GGCTTTAA,-0.271
6,ACACCTTC,0.46
7,AAGGCAAC,-0.0857
8,AGAGATCA,-0.147
9,GGAACCTA,0.046
10,GCCCTGCC,-0.0386
11,CTTAGAAC,-0.0268
12,CTCGGGCA,0.0961
13,TAACTGGA,-0.171
14,GAATACGA,-0.0332
15,GCCAGTTA,-0.0445
16,AGTCCGAG,-0.143
17,CACAAACA,0.0223
18,TCGCACGA,0.107
19,ACTGGAAT,-0.0476
20,ACTGCGCG,-0.021
21,CATGGTCA,-0.133
22,CTTCCGTA,-0.199
23,AATGTACT,-0.0697
24,CGGCTCCA,0.159
25,CGGCTGGA,-0.0793

row,Sequence,binding signal [E-score]
1,AGACATTC,-0.0502
2,GCCACGAC,0.0193
3,ACACGATA,0.375
4,AGTTCGAT,-0.122
5,GAATGCGA,-0.26
6,AAGATTGG,-0.199
7,ATATATGA,-0.0427
8,GAAGACTC,-0.028
9,AATCAGTG,0.0927
10,CAGCAGGC,-0.119
11,GACTTGCC,-0.2
12,ACGAGCTA,-0.13
13,AACGGTCG,-0.0731
14,GATTATTA,-0.0231
15,CGTGGAGA,-0.237
16,CGTGCCAG,-0.0596
17,ATGATTTG,-0.00908
18,ACATTAAT,-0.159
19,AGACGAGA,-0.116
20,ACGTCAGC,-0.0368
21,AGCTAGTA,-0.187
22,AAGCGCCA,-0.0351
23,CCACGGGC,-0.0636
24,TATCAGGA,-0.024
25,GCCCTGCA,0.0992

row,Sequence,binding signal [E-score]
1,ACCCGTCC,0.0968
2,ACTTAACC,0.0139
3,AGAACCGG,-0.0382
4,AGCGCTAT,-0.263
5,ATCCGTCC,-0.128
6,CGCCAGTA,-0.219
7,CATGGCGG,-0.192
8,ACAGCAGC,-0.251
9,AGGGGCTG,-0.115
10,GTCCCCAC,0.0192
11,AAACCGAC,-0.0141
12,AAGCAGAG,-0.204
13,CAACCCTC,-0.0241
14,AGGCATCG,-0.249
15,AAGCACTC,0.0646
16,AATCGAAT,-0.179
17,CTCGAGTA,0.164
18,AAACGCTC,-0.0275
19,ATCGACTG,-0.11
20,ATGGACAG,-0.0632
21,TGTTAACA,0.389
22,TCCGGGAA,-0.0882
23,CTGCTCCC,-0.0545
24,ACTTTAAA,-0.2
25,AGTCGACT,0.0787

row,Sequence,binding signal [E-score]
1,CCGCACCC,0.192
2,AACAACGA,-0.022
3,ACGCTTTC,-0.138
4,GAGCCTTA,-0.254
5,TTCGCAAA,0.0247
6,GCCGCCCA,-0.103
7,CCCGTCTA,0.144
8,GATCCGGA,0.162
9,AATACGGT,-0.0437
10,GTTGGCCA,-0.0152
11,AATTGACA,0.125
12,GACGCGGC,-0.0177
13,TACAACGA,-0.136
14,ACGCATGA,-0.121
15,CCTGCGAC,-0.0334
16,GAAGGGTC,-0.0245
17,TCGTGAAA,-0.14
18,AATTGCTG,-0.196
19,CCGCGCAA,0.143
20,AGTGCGAC,-0.121
21,ATGGGGTG,0.342
22,CCGTACAG,-0.157
23,AGCGATTA,-0.0578
24,CGGTATAC,0.165
25,CTTGCTAC,-0.0389

row,Sequence,binding signal [E-score]
1,AGTGCACG,0.0532
2,CCACAGCC,-0.0112
3,CATTTGAG,-0.0665
4,AGGTTTAG,-0.0327
5,AGGGCCTA,0.0161
6,CCTTCAAG,-0.0806
7,AATCGCGC,-0.0968
8,AAGCCGCT,-0.341
9,AAATATCA,-0.04
10,CCCCGGTA,0.284
11,CCCCGTCG,0.161
12,ACTTTTTG,-0.0857
13,CACTTCCC,0.125
14,CGTGAAAA,-0.257
15,AGTCTTAC,-0.00104
16,ACATTTTC,-0.149
17,ACACTCCA,0.373
18,CCCATACA,0.192
19,CCGAGACA,0.274
20,GCGGGACC,-0.118
21,GATCTGAC,-0.0697
22,CTTCCAAG,-0.0791
23,CACCAGCC,0.239
24,ATATTTCA,3.5e-05
25,CCTCTCGA,0.17

row,Sequence,binding signal [E-score]
1,AGCGAAAC,-0.216
2,TACCACGA,0.0102
3,CGGGCCGA,-0.0991
4,CAACGGAC,-0.0589
5,CTAGACCC,0.184
6,GTGGTTCA,-0.112
7,CGCCAGCC,-0.0818
8,CGTCGCCC,0.0483
9,GACACTAA,0.369
10,CTACCATA,-0.0068
11,TCGCCAGA,-0.169
12,AAGCGGGG,0.128
13,GGAATTAC,-0.0938
14,GAGAAGCA,-0.0815
15,CGAAGTCA,-0.143
16,CAGTACTA,-0.0974
17,GAGATGGA,-0.0177
18,CGGCCAGA,-0.0354
19,CTCGTTCA,0.0563
20,AATGCAGA,-0.0643
21,CTAAGTTC,-0.293
22,GGCCATAA,-0.0742
